Test results reported in PubChem BioAssay AID588855 (National Center for Advancing Translational Sciences (NCATS), 2011).
The whole screen tested about 410,000 compounds, of which about 5,000 (1.2%) were called active. The shares of active, inactive and inconclusive entries below differ from those in the screen. The call rests on the fitted dose curve; in most records, active means well fitted inhibition curve with a large enough effect; inconclusive means small, poorly fitted or top-dose-only effect; inactive means no such curve, though single readings can be large or run the other way. Potencies beside an inconclusive call are fits to weak or partial responses and may not hold up.

Experiment: qHTS for Inhibitors of TGF-b; further: nearly all actives have a fitted effect of over 65% in size
Conditions: HepG2 CAGA-GFP TGF-b/SMAD3 reporter, GFP fluorescence, 18 h, TGF-beta stimulated, 500 pg/mL final; series mostly up to 46.1 µM
Method in brief: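 Inhibition was scored as loss of TGF-beta-induced (500 pg/mL final, 18 hours, 37 degrees C) GFP in HEPG2 cells carrying a CAGA-GFP reporter, in DMEM with 1% FBS. Well GFP was summed per cell; Activity was normalised to unstimulated and stimulated DMSO wells, then concentration-response fitting.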
Potency means the concentration at half of the fitted maximal effect; tags describe the fitted curve by direction and shape.

Row | Structure (SMILES) | Potency
1 | CC(C)C(NS(=O)(=O)c1ccc2c(c1)oc(=O)n2C)C(=O)N1CCN(c2cccc(Cl)c2)CC1 (stereo not given) | inconclusive: 25.1 µM [inhibitor, single point]
2 | CSc1nnc(-c2cccc(NC(=O)c3ccccc3)c2)n1C | inconclusive: 6.31 µM [inhibitor, single point]
3 | Cc1cnc(C(=O)Nc2ccc(C)c(S(=O)(=O)N3CCCCCC3)c2)cn1 | inconclusive: 35.5 µM [inhibitor, single point]
4 | COc1ccc(C2=NN3C(C2)c2ccccc2OC32C(=O)N(C)c3ccccc32)cc1 (stereo not given) | inconclusive: 35.5 µM [inhibitor, single point]
5 | COc1cccc(Nc2nc3ccccc3nc2NS(=O)(=O)c2ccc(NC(C)=O)cc2)c1 | inconclusive: 7.08 µM [inhibitor, full curve]
6 | CCCCC1=CC2=CC(=O)C(C)(OC(=O)CCc3ccccc3)C(=O)C2=CO1 (stereo not given) | inactive
7 | Cc1nn(CC(=O)NCc2ccc(OC(C)C)cc2)c(=O)c2c(C)n(-c3ccc(Cl)cc3)nc12 | inactive
8 | O=C(Nc1nc2cc3c(cc2s1)OCCO3)c1cccc(N2C(=O)CCC2=O)c1 | inconclusive: 6.31 µM [inhibitor, single point]
9 | CCc1ccccc1NC(=O)Cn1nnc(C(=O)Nc2ccc(C)c(F)c2)c1N | inconclusive: 35.5 µM [inhibitor, single point]
10 | Cc1cccc(NC(=O)Cn2cc(C(=O)c3ccco3)c3ccccc32)c1C | inconclusive: 10 µM [inhibitor, partial curve]
11 | CCn1ccnc1CN1CCc2c([nH]c3ccccc23)C1C(C)(C)C (stereo not given) | inactive
12 | Cc1ccc(-c2nc3ccc(C)cn3c2Cc2ccccc2C(F)(F)F)cc1 | inconclusive: 28.2 µM [inhibitor, single point]
13 | COc1nnc(-c2ccc(N3CCOCC3)c(NC(=O)c3ccco3)c2)c2ccccc12 | inactive
14 | CCN1CCN(c2cc(C)c3cc(NC(=S)N4CC(C)CC(C)C4)ccc3n2)CC1 (stereo not given) | inactive
15 | FC(F)(F)c1cc(CCN2CCNC[C@@H]2c2ccccc2)cc(C(F)(F)F)c1 | inconclusive: 35.5 µM [inhibitor, single point]
16 | COc1ccc(S(=O)(=O)NCC(=O)N(CC(=O)NCc2ccco2)Cc2ccccc2)cc1 | inactive
17 | CCN(/N=C/c1ccc(Cl)cc1)c1cc(=O)n(C)c(=O)[nH]1 | inactive
18 | CC1CCC(NC(=O)c2cc(C3CC3)nn2-c2ccccc2)CC1 (stereo not given) | inconclusive: 35.5 µM [inhibitor, single point]
19 | COc1ccc(Br)cc1CNC(=O)CN1CCSc2ccccc21 | inconclusive: 15.8 µM [inhibitor, single point]
20 | CC(C)(C)c1ccc(OCC(=O)Nc2ccncc2)c(Br)c1 | inconclusive: 11.2 µM [inhibitor, partial curve, poor fit]
21 | O=C(O)c1ccn(CSc2cc(Cl)ccc2Cl)n1 | inactive
22 | CCc1cccc2c(C(=O)CN3C(=O)NC4(CCCCCC4)C3=O)c[nH]c12 | inconclusive: 15.8 µM [inhibitor, single point]
23 | CN1CC(=O)NC1=NC(=O)C12CC3CC(CC(C3)C1)C2 | inactive

Row | Structure (SMILES) | Potency
24 | O=C(Nc1ccc(Cl)c(Cl)c1)N1CCC(c2ccccc2)C1 (stereo not given) | inconclusive: 0.316 µM [inhibitor, full curve, poor fit]
25 | Cc1cc(C(=O)COC(=O)COc2ccc(C#N)cc2)c(C)n1C1CC1 | inactive
26 | Cc1ccc2[nH]c(C(=O)N/N=C/c3ccc([N+](=O)[O-])cc3)c(C)c2c1 | inactive
27 | COc1ccc(C(C)NC(=O)C2CCN(CCOc3ccc(Cl)cc3Cl)CC2)cc1OC (stereo not given) | inconclusive: 28.2 µM [inhibitor, single point]
28 | CCC(=O)c1ccc(OCC(=O)OCC(=O)NCCCc2ccccc2)cc1 | inactive
29 | Cc1cccn2c(=O)cc(COc3cccc(NC(=O)c4ccccc4F)c3)nc12 | inactive
30 | CCOC(=O)c1ccccc1NC(=O)c1cc2sccc2n1C | inactive
31 | COc1cccc(OCCNC(=O)c2cccc(OC)c2)c1 | inconclusive: 11.2 µM [inhibitor, single point]
32 | O=C(O)c1cn(-c2ccccc2)nc1C(=O)O | inconclusive: 0.891 µM [inhibitor, partial curve, poor fit]
33 | Cc1ccc(N2C(N)=C(C#N)C3(C(=O)N(C)c4ccccc43)C3=C2CC(C)(C)CC3=O)cc1Cl (stereo not given) | inactive
34 | C=CCC[C@H](Cc1ccc(F)cc1)C(=O)O[C@H](CNC(=O)[C@@H](CC=C)CC(=O)N(CCO)Cc1ccccc1)c1ccccc1 | inconclusive: 35.5 µM [inhibitor, single point]
35 | Cc1cccc(-n2c3nc(=O)n(C)c(=O)c-3cc3c(Cl)cccc32)c1C | inactive
36 | CON1C(=O)C(=O)N(OC)C(C)(C)C1(C)C | inconclusive: 6.31 µM [inhibitor, single point]
37 | CCCCCOc1ccc(NC(=O)C(=O)NCC2CCCN2CC)cc1 (stereo not given) | inactive
38 | c1ccc(C2CC(c3cccs3)n3nnnc3N2)cc1 (stereo not given) | inconclusive: 31.6 µM [inhibitor, single point]
39 | Cc1nnc(NC(=O)CSc2nc3[nH]ncc3c(=O)[nH]2)s1 | inconclusive: 22.4 µM [inhibitor, single point]
40 | O=C(COC(=O)c1ccc(O)cc1O)NC12CC3CC(CC(C3)C1)C2 | inconclusive: 35.5 µM [inhibitor, single point]
41 | CC(C)CN(C(=O)CSc1nnc(-c2cccs2)n1N)c1c(N)n(Cc2ccccc2)c(=O)[nH]c1=O | inconclusive: 5.62 µM [inhibitor, single point]
42 | CS(=O)(=O)N(CC(=O)N1CCCC1)c1cccc(Cl)c1Cl | inconclusive: 2.82 µM [inhibitor, partial curve, poor fit]
43 | O=C1C(=Cc2cn(-c3ccccc3)nc2-c2ccc(OCc3ccccc3)cc2)SC(=S)N1CCS(=O)(=O)O | inactive
44 | Cc1ccc(N(CC(=O)N/N=C/c2ccc(OC3CSC3)cc2)S(=O)(=O)c2ccccc2)cc1 | inactive
45 | CCN1C(=O)C(CC(=O)Nc2cccc(C(C)=O)c2)S/C1=N\c1ccccn1 (stereo not given) | inactive
